Our source for the binding values is paper PMC9352346.

Chains of the proteins cited; added tags and fusions are not shown. Residues count along the entry.
UniProt P84022, residues 232-425: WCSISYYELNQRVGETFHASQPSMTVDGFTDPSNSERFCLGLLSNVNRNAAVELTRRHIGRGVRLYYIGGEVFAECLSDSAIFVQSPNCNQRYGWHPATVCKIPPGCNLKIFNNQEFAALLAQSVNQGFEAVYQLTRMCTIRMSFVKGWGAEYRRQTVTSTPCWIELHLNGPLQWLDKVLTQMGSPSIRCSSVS
UniProt Q15797, residues 271-465: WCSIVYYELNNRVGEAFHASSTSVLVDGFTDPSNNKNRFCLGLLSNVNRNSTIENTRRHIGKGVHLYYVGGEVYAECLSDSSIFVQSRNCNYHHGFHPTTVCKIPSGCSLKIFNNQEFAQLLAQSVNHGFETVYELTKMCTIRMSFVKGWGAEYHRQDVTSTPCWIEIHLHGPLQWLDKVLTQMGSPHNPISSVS

Test [1] has as its target GST-fusion of the MH2 domain of Smad3 (UniProt P84022). In words: pull-down; bead-immobilized GST-fusions of MH2 domains incubated with purified His-tagged Arl15-AL or TN; immunoblotted against His-Tag; both purified.
In test [2] the target is GST-fusion of the MH2 domain of Smad1 (UniProt Q15797). The test is described as above.
For test [3], the target named is GST-fusion of the MH2 domain of Smad2 (UniProt Q15796). The test is described as above.
Test [4] concerns the target GST-Smad4-MH2 (UniProt Q13485). The test is described as above.
Test [5] has as its target GST-Smad4 (UniProt Q13485). Put plainly: pull-down; bead-immobilized GST-Smad4 incubated with HeLa cell lysates expressing Arl15-AL-Myc harboring indicated mutation; immunoblotted against Myc-tag; only the target purified.
In the next test the target is HA-Smad4-MH2 (UniProt Q13485). Put plainly: pull-down; competition in the pull-down of a13: Arl15-AL and HA-Smad4-MH2 co-expressed in HEK293T cells; loss of HA-Smad4-MH2 from GST-Smad4-MH1 beads.
Test [6] has as its target endogenous Smad4 (human (endogenous in HEK293T)) (UniProt Q13485). In words: co-IP; HEK293T cell lysates incubated with anti-Smad4 antibody in the presence of 1 µM GMPPNP; immunoblotted against Arl15 and Smad4.
Test [7] shares this target. Put plainly: co-IP; HEK293T cell lysates incubated with anti-Smad4 antibody in the presence of 1 µM GDP; immunoblotted against Arl15 and Smad4.
The target is the same in test [8]. Described as above. This is another data set of the same source.
Test [9] shares this target. Put plainly: co-IP; HEK293T cells after Arl15 or control (GL2-shRNA) knockdown, serum-starved 4 hr, then further starvation or 5 ng/ml TGFβ1 for 20 hr; lysates incubated with anti-Smad4 antibody.
Test [10] concerns the target GST-Smad4 (UniProt Q13485). In words: pull-down; bead-immobilized GST-fusions of Smad4 fragments incubated with HEK293T cell lysate expressing Arl15-AL-GFP; immunoblotted against GFP; 4 °C; only the target purified.
In a further test the target is GST-Smad4-MH1 (UniProt Q13485). The description is as above.
Test [11] has as its target GST-Smad4-MH2 (UniProt Q13485). The description is as above.
A further test has as its target T1, GST-Smad4, Q13485.
T1 chain: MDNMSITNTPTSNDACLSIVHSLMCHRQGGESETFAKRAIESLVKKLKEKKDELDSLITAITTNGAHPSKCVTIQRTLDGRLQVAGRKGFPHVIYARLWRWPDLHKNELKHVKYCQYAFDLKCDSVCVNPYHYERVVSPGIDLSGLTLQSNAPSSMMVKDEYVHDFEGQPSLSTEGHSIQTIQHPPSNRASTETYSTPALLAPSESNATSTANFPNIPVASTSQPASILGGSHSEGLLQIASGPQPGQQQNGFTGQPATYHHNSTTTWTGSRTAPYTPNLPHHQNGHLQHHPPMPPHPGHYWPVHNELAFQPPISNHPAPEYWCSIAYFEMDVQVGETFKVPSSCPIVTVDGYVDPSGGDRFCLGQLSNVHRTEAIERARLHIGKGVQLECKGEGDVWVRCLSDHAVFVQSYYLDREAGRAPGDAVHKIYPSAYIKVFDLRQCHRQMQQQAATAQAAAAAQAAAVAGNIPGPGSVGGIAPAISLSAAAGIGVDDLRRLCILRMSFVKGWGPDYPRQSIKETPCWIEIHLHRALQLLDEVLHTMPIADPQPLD
In words: pull-down; bead-immobilized GST-Smad4 incubated with HEK293T cell lysates expressing GFP-Smad2 or GFP-Smad1 (WT, SA or SE) with or without overexpressed Arl15-AL; only the target purified. The note with it: remark: other sources report otherwise.

Another test deals with GFP-Smad2 (WT), Q15796. Put plainly: co-IP; HEK293T cell lysates co-expressing GFP- and Myc-tagged proteins incubated with anti-GFP antibody, captured on protein A/G beads; with or without overexpressed Arl15-AL (Figure 4f). The note with it: remark: other sources report otherwise.

Residue numbers refer to the chain shown, from its start. Numbers in names are those of the source. These are yes or no findings as the source states them, for the method shown. For some of these results: Binding seen in cells or lysates may run through a third protein. Some entries that bind do so weakly or less than the wild type. For some of these results: Sequences can lack the tags named with a protein.

B1: His-Arl15-AL (protein, UniProt Q9NXU5 1-204)
chain: MSDLRITEAFLYMDYLCFRALCCKGPPPARPEYDLVCIGLTGSGKTSLLSKLCSESPDNVVSTTGFSIKAVPFQNAILNVKELGGLDNIRKYWSRYYQGSQGVIFVLDSASSEDDLEAARNELHSALQHPQLCTLPFLILANHQDKPAARSVQEIKKYFELEPLARGKRWILQPCSLDDMDALKDSFSQLINLLEEKDHEAVRM
With B1, the binding result in [1] is listed as “no binding”; in test [2], “no binding”; in test [3] it was “no binding”; with GST-Smad4-MH2 [4] it was “binds”.

B2: Arl15-AL-Myc Y96F (protein, UniProt Q9NXU5 1-204)
chain: B1 chain with Y96F
B2: the binding result in the test with GST-Smad4 [5] was “binds”.

B3: His-Arl15-TN (protein, UniProt Q9NXU5 1-204)
chain: B1 chain with T46N, L86A
Take B3: the binding entry (in test [1]; in test [2]; in test [3]; with GST-Smad4-MH2 [4]) was “no binding” throughout.

B4: Arl15-AL (co-expressed in the MH1-MH2 pull-downs of Figure 4a and c) (protein, UniProt Q9NXU5 1-204)
chain: B1 chain
As for B4, in the test with HA-Smad4-MH2, the binding result is on record as “binds”.

B5: Arl15-AL-Myc R95C (protein, UniProt Q9NXU5 1-204)
chain: B1 chain with R95C
With B5, the binding result in the test with GST-Smad4 [5] is “binds”.

B6: Arl15-AL-Myc R90L (protein, UniProt Q9NXU5 1-204)
chain: B1 chain with R90L
Regarding B6, the binding result with GST-Smad4 [5] was “binds”.

B7: Arl15-AL-Myc (protein, UniProt Q9NXU5 1-204)
chain: B1 chain
Turning to B7, the binding entry in the test with GST-Smad4 [5] is listed as “binds”.

B8: endogenous Arl15 (protein, UniProt Q9NXU5 1-204)
chain: B1 chain with L86A
With B8, the binding result is on record as “binds” in test [6], “no binding (condition: with 1 µM GDP)” in test [7], “binds weakly” in test [8] and “binds” in [9].

B9: Arl15-AL-GFP (protein, UniProt Q9NXU5 1-204)
chain: B1 chain
Take B9: the binding entry with GST-Smad4 [10] is recorded as “binds”; with GST-Smad4-MH1, “no binding”; in the test with GST-Smad4-MH2 [11], “binds”.

B10: GFP-Smad2 (WT), Q15796 1-467 (protein)
chain: MSSILPFTPPVVKRLLGWKKSAGGSGGAGGGEQNGQEEKWCEKAVKSLVKKLKKTGRLDELEKAITTQNCNTKCVTIPSTCSEIWGLSTPNTIDQWDTTGLYSFSEQTRSLDGRLQVSHRKGLPHVIYCRLWRWPDLHSHHELKAIENCEYAFNLKKDEVCVNPYHYQRVETPVLPPVLVPRHTEILTELPPLDDYTHSIPENTNFPAGIEPQSNYIPETPPPGYISEDGETSDQQLNQSMDTGSPAELSPTTLSPVNHSLDLQPVTYSEPAFWCSIAYYELNQRVGETFHASQPSLTVDGFTDPSNSERFCLGLLSNVNRNATVEMTRRHIGRGVRLYYIGGEVFAECLSDSAIFVQSPNCNQRYGWHPATVCKIPPGCNLKIFNNQEFAALLAQSVNQGFEAVYQLTRMCTIRMSFVKGWGAEYRRQTVTSTPCWIELHLNGPLQWLDKVLTQMGSPSVRCSSMS
As for B10, in the test with GST-Smad4, Q13485, the binding entry was “no binding”.

B11: Myc-Smad4, Q13485 1-552 (protein)
chain: T1 chain
As to B11, in the test with GFP-Smad2 (WT), Q15796, the binding result is “no binding”.
